Data from publication PMC5505151, “A proteomic analysis of LRRK2 binding partners reveals interactions with multiple signaling components of the WNT/PCP pathway” (Molecular Neurodegeneration, 2017).
Like-named read-outs stand apart in the source and are kept apart here. These are yes or no findings as the source states them, for the method shown. In cells and extracts the contact can be indirect. Some binding calls cover weakened binding; strength is not graded here. For some of these results: Where a sequence is shown, tags or fusion partners need not be part of it.

By UniProt entry, the sequences of proteins in these tests, tags left out. Where a name states a change or a piece, a line headed by the entry shows the natural chain unless it says otherwise. Residues count along the entry.
UniProt Q5S007: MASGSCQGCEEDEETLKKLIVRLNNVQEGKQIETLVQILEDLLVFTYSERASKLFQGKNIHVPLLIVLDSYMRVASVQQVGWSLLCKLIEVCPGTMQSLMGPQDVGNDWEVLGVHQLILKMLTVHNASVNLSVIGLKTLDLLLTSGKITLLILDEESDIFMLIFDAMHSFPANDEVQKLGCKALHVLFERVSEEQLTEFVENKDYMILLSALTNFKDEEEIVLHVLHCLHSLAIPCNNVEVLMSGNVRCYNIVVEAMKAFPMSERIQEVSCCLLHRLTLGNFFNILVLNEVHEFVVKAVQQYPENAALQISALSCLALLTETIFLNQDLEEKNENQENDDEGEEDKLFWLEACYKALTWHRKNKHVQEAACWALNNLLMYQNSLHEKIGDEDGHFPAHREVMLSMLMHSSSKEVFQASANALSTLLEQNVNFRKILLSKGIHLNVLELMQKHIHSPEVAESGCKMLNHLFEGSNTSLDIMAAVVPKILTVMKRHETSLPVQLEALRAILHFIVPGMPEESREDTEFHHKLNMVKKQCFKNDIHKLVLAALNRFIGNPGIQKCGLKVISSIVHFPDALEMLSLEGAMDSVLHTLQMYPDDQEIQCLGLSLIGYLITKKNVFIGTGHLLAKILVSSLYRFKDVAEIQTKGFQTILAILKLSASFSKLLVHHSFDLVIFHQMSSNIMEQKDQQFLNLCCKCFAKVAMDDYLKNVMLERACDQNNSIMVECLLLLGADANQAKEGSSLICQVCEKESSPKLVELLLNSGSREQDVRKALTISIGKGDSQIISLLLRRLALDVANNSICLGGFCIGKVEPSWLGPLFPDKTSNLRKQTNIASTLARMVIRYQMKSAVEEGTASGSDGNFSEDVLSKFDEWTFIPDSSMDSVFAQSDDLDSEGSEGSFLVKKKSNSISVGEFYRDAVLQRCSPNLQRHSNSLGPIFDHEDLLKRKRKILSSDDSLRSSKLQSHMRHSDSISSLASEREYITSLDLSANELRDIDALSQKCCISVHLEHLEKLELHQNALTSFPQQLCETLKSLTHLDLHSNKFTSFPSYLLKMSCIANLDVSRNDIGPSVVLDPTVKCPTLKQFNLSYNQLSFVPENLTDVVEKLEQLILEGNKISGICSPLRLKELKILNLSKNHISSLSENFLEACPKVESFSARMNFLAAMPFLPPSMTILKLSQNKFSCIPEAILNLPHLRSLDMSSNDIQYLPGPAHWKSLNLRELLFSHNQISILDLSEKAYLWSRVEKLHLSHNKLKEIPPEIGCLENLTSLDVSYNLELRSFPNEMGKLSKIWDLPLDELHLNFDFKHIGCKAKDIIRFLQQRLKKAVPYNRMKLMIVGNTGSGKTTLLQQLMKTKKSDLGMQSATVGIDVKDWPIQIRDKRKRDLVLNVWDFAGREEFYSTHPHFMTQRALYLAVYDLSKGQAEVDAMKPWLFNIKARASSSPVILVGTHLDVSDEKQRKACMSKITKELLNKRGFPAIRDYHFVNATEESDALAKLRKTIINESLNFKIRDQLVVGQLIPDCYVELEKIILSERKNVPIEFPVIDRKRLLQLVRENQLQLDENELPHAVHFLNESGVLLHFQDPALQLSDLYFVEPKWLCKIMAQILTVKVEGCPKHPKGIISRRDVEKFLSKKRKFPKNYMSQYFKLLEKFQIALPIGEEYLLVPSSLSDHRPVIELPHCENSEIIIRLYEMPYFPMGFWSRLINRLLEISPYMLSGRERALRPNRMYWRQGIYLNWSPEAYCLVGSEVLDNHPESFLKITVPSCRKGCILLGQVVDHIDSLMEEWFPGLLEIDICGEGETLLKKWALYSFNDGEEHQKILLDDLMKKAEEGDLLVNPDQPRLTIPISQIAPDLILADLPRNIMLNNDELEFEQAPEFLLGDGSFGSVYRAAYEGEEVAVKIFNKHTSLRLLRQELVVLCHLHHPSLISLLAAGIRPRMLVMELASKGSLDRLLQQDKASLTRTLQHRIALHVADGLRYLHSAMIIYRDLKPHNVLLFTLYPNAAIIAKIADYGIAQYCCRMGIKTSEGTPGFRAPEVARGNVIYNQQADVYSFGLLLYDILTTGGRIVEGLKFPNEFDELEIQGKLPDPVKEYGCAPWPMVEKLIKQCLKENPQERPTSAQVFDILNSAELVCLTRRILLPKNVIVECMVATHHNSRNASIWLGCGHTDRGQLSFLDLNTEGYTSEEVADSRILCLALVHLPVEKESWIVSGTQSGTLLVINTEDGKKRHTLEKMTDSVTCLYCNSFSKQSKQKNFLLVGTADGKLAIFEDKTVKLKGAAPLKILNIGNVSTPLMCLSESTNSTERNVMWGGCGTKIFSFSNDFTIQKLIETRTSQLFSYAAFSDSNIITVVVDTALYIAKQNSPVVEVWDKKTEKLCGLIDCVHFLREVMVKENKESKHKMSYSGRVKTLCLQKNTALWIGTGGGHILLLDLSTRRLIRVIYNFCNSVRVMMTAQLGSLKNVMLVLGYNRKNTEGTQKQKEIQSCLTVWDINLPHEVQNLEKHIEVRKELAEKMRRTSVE
UniProt Q9Z138, residues 34-944: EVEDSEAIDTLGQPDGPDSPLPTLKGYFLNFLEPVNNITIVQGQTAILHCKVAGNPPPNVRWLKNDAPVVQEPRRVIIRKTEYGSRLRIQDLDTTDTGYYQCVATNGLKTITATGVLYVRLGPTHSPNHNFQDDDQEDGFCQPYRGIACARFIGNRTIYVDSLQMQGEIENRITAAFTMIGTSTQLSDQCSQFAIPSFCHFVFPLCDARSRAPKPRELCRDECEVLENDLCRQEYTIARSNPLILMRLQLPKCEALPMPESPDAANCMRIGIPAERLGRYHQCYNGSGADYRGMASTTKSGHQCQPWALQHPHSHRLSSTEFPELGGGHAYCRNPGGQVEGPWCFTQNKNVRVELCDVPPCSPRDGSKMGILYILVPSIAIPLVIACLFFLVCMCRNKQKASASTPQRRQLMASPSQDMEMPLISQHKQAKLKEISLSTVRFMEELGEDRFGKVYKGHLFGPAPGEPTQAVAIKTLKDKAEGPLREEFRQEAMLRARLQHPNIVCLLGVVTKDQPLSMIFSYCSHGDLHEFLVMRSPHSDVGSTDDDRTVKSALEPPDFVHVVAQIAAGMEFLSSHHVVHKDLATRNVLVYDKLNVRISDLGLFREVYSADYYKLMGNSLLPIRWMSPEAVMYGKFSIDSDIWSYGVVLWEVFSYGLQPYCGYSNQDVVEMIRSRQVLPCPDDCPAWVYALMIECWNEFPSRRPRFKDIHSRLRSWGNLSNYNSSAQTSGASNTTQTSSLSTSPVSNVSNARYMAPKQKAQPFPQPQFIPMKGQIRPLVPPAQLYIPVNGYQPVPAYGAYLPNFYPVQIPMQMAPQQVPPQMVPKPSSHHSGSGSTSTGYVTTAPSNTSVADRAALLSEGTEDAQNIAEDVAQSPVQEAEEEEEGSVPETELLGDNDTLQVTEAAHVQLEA
UniProt O35161, residues 30-3034: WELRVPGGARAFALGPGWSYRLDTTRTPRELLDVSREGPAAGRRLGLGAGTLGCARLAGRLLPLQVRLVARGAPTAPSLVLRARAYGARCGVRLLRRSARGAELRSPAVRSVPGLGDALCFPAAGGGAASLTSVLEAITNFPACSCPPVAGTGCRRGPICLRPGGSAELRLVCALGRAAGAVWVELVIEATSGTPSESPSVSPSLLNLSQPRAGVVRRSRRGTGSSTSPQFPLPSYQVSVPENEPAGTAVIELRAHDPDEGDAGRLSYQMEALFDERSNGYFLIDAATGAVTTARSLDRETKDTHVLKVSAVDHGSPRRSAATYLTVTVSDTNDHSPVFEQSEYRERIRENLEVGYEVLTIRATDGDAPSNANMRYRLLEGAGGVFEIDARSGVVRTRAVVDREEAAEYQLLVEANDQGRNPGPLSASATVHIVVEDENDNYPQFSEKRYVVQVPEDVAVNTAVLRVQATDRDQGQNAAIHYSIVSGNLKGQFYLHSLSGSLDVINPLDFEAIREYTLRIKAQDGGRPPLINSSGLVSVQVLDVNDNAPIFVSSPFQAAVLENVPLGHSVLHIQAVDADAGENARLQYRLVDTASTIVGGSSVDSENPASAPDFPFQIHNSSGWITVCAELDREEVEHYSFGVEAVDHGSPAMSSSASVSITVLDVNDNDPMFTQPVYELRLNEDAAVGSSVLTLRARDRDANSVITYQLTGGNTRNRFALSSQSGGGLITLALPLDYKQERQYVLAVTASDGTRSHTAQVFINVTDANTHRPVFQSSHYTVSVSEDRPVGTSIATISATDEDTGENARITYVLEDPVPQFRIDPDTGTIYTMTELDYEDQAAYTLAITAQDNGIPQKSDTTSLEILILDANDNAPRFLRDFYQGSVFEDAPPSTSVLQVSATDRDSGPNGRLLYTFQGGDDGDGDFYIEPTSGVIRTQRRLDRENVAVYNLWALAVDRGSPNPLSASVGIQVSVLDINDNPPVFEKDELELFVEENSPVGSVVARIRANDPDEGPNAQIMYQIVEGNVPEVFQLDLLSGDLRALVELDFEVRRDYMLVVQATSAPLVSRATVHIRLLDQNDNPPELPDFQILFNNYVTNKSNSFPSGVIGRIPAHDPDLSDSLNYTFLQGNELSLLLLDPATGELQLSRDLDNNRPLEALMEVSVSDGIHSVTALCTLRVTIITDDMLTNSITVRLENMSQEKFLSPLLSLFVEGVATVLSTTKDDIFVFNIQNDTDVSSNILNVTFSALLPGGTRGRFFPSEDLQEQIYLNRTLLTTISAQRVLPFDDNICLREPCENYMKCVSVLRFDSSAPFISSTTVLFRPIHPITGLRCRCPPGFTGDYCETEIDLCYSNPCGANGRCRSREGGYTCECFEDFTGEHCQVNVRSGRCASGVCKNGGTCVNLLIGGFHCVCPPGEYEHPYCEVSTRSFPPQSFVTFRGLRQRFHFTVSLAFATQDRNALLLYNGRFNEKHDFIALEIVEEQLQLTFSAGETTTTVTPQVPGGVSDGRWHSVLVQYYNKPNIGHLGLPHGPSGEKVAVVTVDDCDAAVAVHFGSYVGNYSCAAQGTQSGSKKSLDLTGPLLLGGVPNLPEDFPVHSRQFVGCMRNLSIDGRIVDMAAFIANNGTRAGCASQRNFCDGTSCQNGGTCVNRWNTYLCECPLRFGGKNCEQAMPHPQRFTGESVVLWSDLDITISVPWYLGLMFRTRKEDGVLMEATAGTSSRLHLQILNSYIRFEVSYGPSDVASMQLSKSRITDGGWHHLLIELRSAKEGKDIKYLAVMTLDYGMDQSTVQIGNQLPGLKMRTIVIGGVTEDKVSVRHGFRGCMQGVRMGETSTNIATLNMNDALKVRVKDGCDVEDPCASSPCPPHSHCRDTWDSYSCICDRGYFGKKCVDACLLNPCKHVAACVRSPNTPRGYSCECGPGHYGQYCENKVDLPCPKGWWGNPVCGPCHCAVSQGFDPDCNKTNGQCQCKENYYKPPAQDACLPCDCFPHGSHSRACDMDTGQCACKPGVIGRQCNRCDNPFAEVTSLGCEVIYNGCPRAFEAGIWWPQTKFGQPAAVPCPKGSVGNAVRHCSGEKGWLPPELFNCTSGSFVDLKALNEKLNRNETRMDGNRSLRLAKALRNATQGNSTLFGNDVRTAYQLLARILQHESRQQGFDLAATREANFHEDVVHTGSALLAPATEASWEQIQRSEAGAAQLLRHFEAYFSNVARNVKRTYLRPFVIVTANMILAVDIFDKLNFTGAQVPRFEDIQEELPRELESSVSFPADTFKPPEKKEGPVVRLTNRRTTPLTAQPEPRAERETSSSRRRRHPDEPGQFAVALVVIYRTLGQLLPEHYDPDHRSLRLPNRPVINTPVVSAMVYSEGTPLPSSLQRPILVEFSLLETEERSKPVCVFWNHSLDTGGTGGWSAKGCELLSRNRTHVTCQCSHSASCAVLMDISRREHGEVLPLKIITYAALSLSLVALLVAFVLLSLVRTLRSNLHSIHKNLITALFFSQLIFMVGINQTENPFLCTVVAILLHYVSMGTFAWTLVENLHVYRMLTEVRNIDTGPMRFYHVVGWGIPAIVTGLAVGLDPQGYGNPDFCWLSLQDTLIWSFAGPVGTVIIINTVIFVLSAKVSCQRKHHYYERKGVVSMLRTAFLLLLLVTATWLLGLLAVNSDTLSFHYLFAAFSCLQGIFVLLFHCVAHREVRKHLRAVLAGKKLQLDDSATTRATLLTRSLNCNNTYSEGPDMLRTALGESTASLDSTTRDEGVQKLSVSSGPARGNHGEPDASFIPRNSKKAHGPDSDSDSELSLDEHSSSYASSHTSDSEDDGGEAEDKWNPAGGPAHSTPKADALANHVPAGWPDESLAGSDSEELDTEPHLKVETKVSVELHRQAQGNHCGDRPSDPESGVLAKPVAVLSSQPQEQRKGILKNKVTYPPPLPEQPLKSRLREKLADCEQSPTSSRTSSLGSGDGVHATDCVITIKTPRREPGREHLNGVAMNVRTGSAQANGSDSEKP

What was measured:
[1] = molecular target: LRRK2 (wild type, transiently overexpressed; tagged construct not told for the experiment) (UniProt Q5S007); assay: co-IP; proteins transiently overexpressed in HEK293T, lysed 24-48 h post transfection in NP40 lysis buffer, pre-cleared, 1 ug antibody (GFP, C-MYC, V5 or FLAG) and DynaBeads, 5 washes, immunoblot
V5-Lrrk2 WT [2] = molecular target: V5-Lrrk2 WT (UniProt Q5S007); assay: as above
LRRK2 G2019S (V5) [3] = molecular target: LRRK2 G2019S (V5) (UniProt Q5S007); assay: as above
LRRK2 R1441C (V5) [4] = molecular target: LRRK2 R1441C (V5) (UniProt Q5S007); assay: as above
LRRK2 Y1699C (V5) [5] = molecular target: LRRK2 Y1699C (V5) (UniProt Q5S007); assay: as above
[6] = molecular target: LRRK2 (wild type, transiently overexpressed; tagged construct not told for the experiment) (UniProt Q5S007); assay: as above; remark: listed apart in the source
[7] = molecular target: LRRK2 (wild type, transiently overexpressed; tagged construct not told for the experiment) (UniProt Q5S007); assay: co-IP; data not shown; transient overexpression in HEK293T and immunoprecipitation of LRRK2
LRRK2 G2019S (V5) [8] = molecular target: LRRK2 G2019S (V5) (UniProt Q5S007); assay: co-IP; proteins transiently overexpressed in HEK293T, lysed 24-48 h post transfection in NP40 lysis buffer, pre-cleared, 1 ug antibody (GFP, C-MYC, V5 or FLAG) and DynaBeads, 5 washes, immunoblot; remark: listed apart in the source
LRRK2 R1441C (V5) [9] = molecular target: LRRK2 R1441C (V5) (UniProt Q5S007); assay: as above; remark: listed apart in the source
LRRK2 Y1699C (V5) [10] = molecular target: LRRK2 Y1699C (V5) (UniProt Q5S007); assay: as above; remark: listed apart in the source
V5-Lrrk2 WT [11] = molecular target: V5-Lrrk2 WT (UniProt Q5S007); assay: as above; remark: listed apart in the source

Ror2-Flag (from UniProt Q9Z138 34-944) (receptor)
binding [1]: no binding

Celsr1-EGFP (from UniProt O35161 30-3034) (receptor)
binding (V5-Lrrk2 WT [2]): binds

CELSR1 (transiently overexpressed; tagged construct not told for the experiment) (from UniProt O35161 30-3034) (receptor)
binding [1]: binds | binding (LRRK2 G2019S (V5) [3]): binds | binding (LRRK2 R1441C (V5) [4]): binds | binding (LRRK2 Y1699C (V5) [5]): binds | binding (V5-Lrrk2 WT [2]): binds

B1: Flotillin2-GFP (protein, UniProt Q14254 1-428)
chain: MGNCHTVGPNEALVVSGGCCGSDYKQYVFGGWAWAWWCISDTQRISLEIMTLQPRCEDVETAEGVALTVTGVAQVKIMTEKELLAVACEQFLGKNVQDIKNVVLQTLEGHLRSILGTLTVEQIYQDRDQFAKLVREVAAPDVGRMGIEILSFTIKDVYDKVDYLSSLGKTQTAVVQRDADIGVAEAERDAGIREAECKKEMLDVKFMADTKIADSKRAFELQKSAFSEEVNIKTAEAQLAYELQGAREQQKIRQEEIEIEVVQRKKQIAVEAQEILRTDKELIATVRRPAEAEAHRIQQIAEGEKVKQVLLAQAEAEKIRKIGEAEAAVIEAMGKAEAERMKLKAEAYQKYGDAAKMALVLEALPQIAAKIAAPLTKVDEIVVLSGDNSKVTSEVNRLLAELPASVHALTGVDLSKIPLIKKATGVQV
binding [6]: binds

B2: Flag-JIP3 (protein, UniProt Q9ESN9 1-1337)
chain: MMEIQMDEGGGVVVYQDDYCSGSVMSERVSGLAGSIYREFERLIHCYDEEVVKELMPLVVNVLENLDSVLSENQEHEVELELLREDNEQLLTQYEREKALRKQAEEKFIEFEDALEQEKKELQIQVEHYEFQTRQLELKAKNYADQISRLEERESEMKKEYNALHQRHTEMIQTYVEHIERSKMQQVGGSGQTESSLPGRSRKERPTSLNVFPLADGMVRAQMGGKLVPAGDHWHLSDLGQLQSSSSYQCPNDEMSESGQSSAAATPSTTGTKSNTPTSSVPSAAVTPLNESLQPLGDYVSVTKNNKQAREKRNSRNMEVQVTQEMRNVSIGMGSSDEWSDVQDIIDSTPELDVCPETRLERTGSSPTQGIVNKAFGINTDSLYHELSTAGSEVIGDVDEGADLLGEFSVRDDFFGMGKEVGNLLLENSQLLETKNALNVVKNDLIAKVDQLSGEQEVLKGELEAAKQAKVKLENRIKELEEELKRVKSEAVTARREPREEVEDVSSYLCTELDKIPMAQRRRFTRVEMARVLMERNQYKERLMELQEAVRWTEMIRASREHPSVQEKKKSTIWQFFSRLFSSSSSPPPAKRSYPSVNIHYKSPTAAGFSQRRSHALCQISAGSRPLEFFPDDDCTSSARREQKREQYRQVREHVRNDDGRLQACGWSLPAKYKQLSPNGGQEDTRMKNVPVPVYCRPLVEKDPSTKLWCAAGVNLSGWKPHEEDSSNGPKPVPGRDPLTCDREGEGEPKSTHPSPEKKKAKETPEADATSSRVWILTSTLTTSKVVIIDANQPGTIVDQFTVCNAHVLCISSIPAASDSDYPPGEMFLDSDVNPEDSGADGVLAGITLVGCATRCNVPRSNCSSRGDTPVLDKGQGDVATTANGKVNPSQSTEEATEATEVPDPGPSESEATTVRPGPLTEHVFTDPAPTPSSSTQPASENGSESNGTIVQPQVEPSGELSTTTSSAAPTMWLGAQNGWLYVHSAVANWKKCLHSIKLKDSVLSLVHVKGRVLVALADGTLAIFHRGEDGQWDLSNYHLMDLGHPHHSIRCMAVVNDRVWCGYKNKVHVIQPKTMQIEKSFDAHPRRESQVRQLAWIGDGVWVSIRLDSTLRLYHAHTHQHLQDVDIEPYVSKMLGTGKLGFSFVRITALLIAGNRLWVGTGNGVVISIPLTETVVLHRGQLLGLRANKTSPTSGEGTRPGGIIHVYGDDSSDKAASSFIPYCSMAQAQLCFHGHRDAVKFFVSVPGNVLATLNGSVLDSPSEGPGPAAPAADAEGQKLKNALVLSGGEGYIDFRIGDGEDDETEECAGDVNQTKPSLSKAERSHIIVWQVSYTPE
binding [6]: binds

B3: Flotillin1-GFP (protein, UniProt O75955 1-427)
chain: MFFTCGPNEAMVVSGFCRSPPVMVAGGRVFVLPCIQQIQRISLNTLTLNVKSEKVYTRHGVPISVTGIAQVKIQGQNKEMLAAACQMFLGKTEAEIAHIALETLEGHQRAIMAHMTVEEIYKDRQKFSEQVFKVASSDLVNMGISVVSYTLKDIHDDQDYLHSLGKARTAQVQKDARIGEAEAKRDAGIREAKAKQEKVSAQYLSEIEMAKAQRDYELKKAAYDIEVNTRRAQADLAYQLQVAKTKQQIEEQRVQVQVVERAQQVAVQEQEIARREKELEARVRKPAEAERYKLERLAEAEKSQLIMQAEAEAASVRMRGEAEAFAIGARARAEAEQMAKKAEAFQLYQEAAQLDMLLEKLPQVAEEISGPLTSANKITLVSSGSGTMGAAKVTGEVLDILTRLPESVERLTGVSISQVNHKPLRTA
binding [7]: binds weakly

B4: Prickle1-ECFP (natural protein, UniProt Q3U5C7 1-832, looked up)
chain: MPLEMEPKMSKLVFGCQRSSTSDDDSGCALEEYAWVPPGLRPEQIQLYFACLPEEKVPYVNSPGEKHRIKQLLYQLPPHDNEVRYCQSLSEEEKKELQVFSAQRKKEALGRGTIKLLSRAVMHAVCEQCGLQMNGGEVAVFASRAGPGVCWHPSCFVCFTCNELLVDLIYFYQDGKIHCGRHHAELLKPRCSACDEIIFADECTEAEGRHWHMKHFCCLECETVLGGQRYIMKDGRPFCCGCFESLYAEYCETCGEHIGVDHAQMTYDGQHWHATEACFSCAQCKASLLGCPFLPKQGQIYCSKTCSLGEDIHASDSSDSAFQSARSRDSRRSVRMGRSSRSADQCRQSLLLSPALNYKFPGLSGNADDTLSRKLDDVSLASRQGAGFANEEFWKARVEQEASEDPEEWAEHEDYMTQLLLKFGDKNLFQQQSSEVDPRASEHWIPDNMVTNKPEVKPNHQGLASKKYQSDMYWAQSQDGLGDSAYGSHPGPASSRRLQELDLDHGAAGYTHDQSQWYEDSLECLSDLKPEQSIRDSMDSLALSNITGASVDGESKPRPSLYSLQNFEEIEAEDCEKMSNMGTLNSSMLHRSAESLQSLNSGLCPEKILPEEKPAHLPVLRRSKSQSRPQQVKFSDDVIDNGSYDIEIRQPPMSERTRRRAYHFEERGSRPHHHRHRRSRKSRSDNALNLVTERKYSAKDRLRLYTPDNYEKFIQNKSARELQAYMQNANLYSQYAHATSDYALQNPGMNRFLGLCGEDDDSWCSSSTSSSDSEEEGYFLGQPIPQPRPQRFTYYTDDLSSPASALPTPQFTQRTTKSKKKKGHKGKNCIIS
binding [6]: binds | binding (LRRK2 G2019S (V5) [8]): binds | binding (LRRK2 R1441C (V5) [9]): binds | binding (LRRK2 Y1699C (V5) [10]): binds | binding (V5-Lrrk2 WT [11]): binds

B5: Vangl2-HA (protein, UniProt Q91ZD4 1-521)
chain: MDTESQYSGYSYKSGHSRSSRKHRDRRDRHRSKSRDGSRGDKSVTIQAPGEPLLDNESTRGDERDDNWGETTTVVTGTSEHSISHDDLTRIAKDMEDSVPLDCSRHLGVAAGAILALLSFLTPLAFLLLPPLLWREELEPCGTACEGLFISVAFKLLILLLGSWALFFRRPKASLPRVFVLRALLMVLVFLLVISYWLFYGVRILDARERSYQGVVQFAVSLVDALLFVHYLAVVLLELRQLQPQFTLKVVRSTDGASRFYNVGHLSIQRVAVWILEKYYHDFPVYNPALLNLPKSVLAKKVSGFKVYSLGEENSTNNSTGQSRAVIAAAARRRDNSHNEYYYEEAEHERRVRKRRARLVVAVEEAFTHIKRLQEEEQKNPREVMDPREAAQAIFASMARAMQKYLRTTKQQPYHTMESILQHLEFCITHDMTPKAFLERYLAAGPTIQYHKERWLAKQWTLVSEEPVTNGLKDGIVFLLKRQDFSLVVSTKKVPFFKLSEEFVDPKSHKFVMRLQSETSV
binding [6]: no binding
